{"source": "patent US20240002383A1", "about": "(priority 2021, published 2024)", "key": {"[1]": {"system": "SARS-CoV-2 RBD", "settings": "rabbit, in vivo"}, "[2]": {"system": "SARS-CoV-2 RBD", "settings": "mouse, in vivo"}}}
{"compound": "CCn1nc(C)cc1C(=O)Nc1nc2cc(C(N)=O)cnc2n1C/C=C/Cn1c(NC(=O)c2cc(C)nn2CC)nc2cc(C(N)=O)cc(OCCN3CCOCC3)c21", "note": "[CF510, (E)-3-(4-(5-carbamoyl-2-(1-ethyl-3-methyl-1H-pyrazole-5-carboxamido)-7-(2-morpholinoethoxy)-1H-benzo[d]imidazol-1-yl)but-2-en-1-yl)-2-(1-ethyl-3-methyl-1H-pyrazole-5-carboxamido)-3H-imidazo[4,5-b]pyridine-6-carboxamide]", "values": [{"measurement": "binding antibodies relative to Alum (in words)", "setting": "[1]", "value": "could not induce more potent binding antibodies relative to Alum in the rabbits"}, {"measurement": "immune response in mice (TH1 / TH2; cellular and humoral), in words", "setting": "[2]", "value": "can significantly improve the TH1 and TH2 immune responses in mice"}]}
{"compound": "CCn1nc(C)cc1C(=O)Nc1nc2cc(C(N)=O)cnc2n1C/C=C/Cn1c(NC(=O)c2cc(C)nn2CC)nc2cc(C(N)=O)cc(OCCCN3CCNCC3)c21", "note": "[CF508, (E)-3-(4-(5-carbamoyl-2-(1-ethyl-3-methyl-1H-pyrazole-5-carboxamido)-7-(3-(piperazin-1-yl)propoxy)-1H-benzo[d]imidazol-1-yl)but-2-en-1-yl)-2-(1-ethyl-3-methyl-1H-pyrazole-5-carboxamido)-3H-imidazo[4,5-b]pyridine-6-carboxamide]", "values": [{"measurement": "binding antibodies relative to Alum (in words)", "setting": "[1]", "value": "could not induce more potent binding antibodies relative to Alum in the rabbits"}, {"measurement": "immune response in mice (TH1 / TH2; cellular and humoral), in words", "setting": "[2]", "value": "can significantly improve the TH1 and TH2 immune responses in mice"}]}
{"compound": "CCn1nc(C)cc1C(=O)/N=c1\\n(C)c2cc(C(N)=O)cnc2n1C/C=C/Cn1/c(=N/C(=O)c2cc(C)nn2CC)n(C)c2cc(C(N)=O)cc(OCCCN3CCOCC3)c21", "note": "[CF512, (E)-3-((E) 4-((E)-5-carbamoyl-2-((1-ethyl-3-methyl-1H-pyrazole-5-carbonyl)imino)-3-methyl-7-(3-morpholinopropoxy)-2,3-dihydro-1H-benzo[d]imidazol-1-yl)but-2-en-1-yl)-2-((1-ethyl-3-methyl-1H-pyrazole-5-carbonyl)imino)-1-methyl-2,3-dihydro-1H-imidazo[4,5-b]pyridine-6-carboxamide]", "values": [{"measurement": "binding antibodies relative to Alum (in words)", "setting": "[1]", "value": "could not induce more potent binding antibodies relative to Alum in the rabbits"}, {"measurement": "production of the RBD-specific IgG2a antibodies (in words)", "setting": "[2]", "value": "can potently activate the production of the RBD-specific IgG2a antibodies"}]}
{"compound": "CCn1nc(C)cc1C(=O)Nc1nc2cc(C(N)=O)cnc2n1C/C=C/Cn1c(NC(=O)c2cc(C)nn2CC)nc2cc(C(N)=O)cc(OCCCN3CCOCC3)c21", "note": "[CF501, (E)-3-(4-(5-carbamoyl-2-(1-ethyl-3-methyl-1H-pyrazole-5-carboxamido)-7-(3-morpholinopropoxy)-1H-benzo[d]imidazol-1-yl)but-2-en-1-yl)-2-(1-ethyl-3-methyl-1H-pyrazole-5-carboxamido)-3H-imidazo[4,5-b]pyridine-6-carboxamide]", "values": [{"measurement": "production of the RBD-specific IgG2a antibodies (in words)", "setting": "[2]", "value": "can potently activate the production of the RBD-specific IgG2a antibodies"}]}
{"compound": "CCn1nc(C)cc1C(=O)Nc1nc2cc(C(N)=O)ccc2n1C/C=C/Cn1c(NC(=O)c2cc(C)nn2CC)nc2cc(C(N)=O)cnc21", "note": "[CF502, (E)-3-(4-(5-carbamoyl-2-(1-ethyl-3-methyl-1H-pyrazole-5-carboxamido)-1H-benzo[d]imidazol-1-yl)but-2-en-1-yl)-2-(1-ethyl-3-methyl-1H-pyrazole-5-carboxamido)-3H-imidazo[4,5-b]pyridine-6-carboxamide]", "values": [{"measurement": "binding antibodies relative to Alum (in words)", "setting": "[1]", "value": "could not induce more potent binding antibodies relative to Alum in the rabbits"}, {"measurement": "immune response in mice (TH1 / TH2; cellular and humoral), in words", "setting": "[2]", "value": "can significantly improve the TH1 and TH2 immune responses in mice"}]}
